The other results are listed elsewhere or left out. At the low end of the ranking, values are background and their order means little.

Experimental findings from paper PMC5515408 are described below.

This assay deals with MAX:MAX (p21) (UniProt P61244-2). The assay is described as follows: protein-binding microarray (anti-MAX antibody). The settings on record: PBM: 15 mM Tris-HCl pH 7.5, 100 mM KCl, 0.075% NP40, 7.5 mM beta-mercaptoethanol, 375 ng/ul BSA, 8 ng/ul poly(dA-dT):(dA-dT), 550 ng complex, 60 min, room …; high values mean tight binding; double strand, one strand shown; sequences stand for … in CCGGC…TTAATAGCTAAGATTACTATATCGACG
For the sequence TGATCCATTGTA, the binding signal (log2 normalized fluorescence) is -0.567.

For TGATCTCAAGTA, the binding signal (log2 normalized fluorescence) is -0.88.

For TGAGGCATAGTA, the binding signal (log2 normalized fluorescence) is -0.791.

AAATACGTGGTA yielded a binding signal (log2 normalized fluorescence) of 1.85.

The sequence TGAGTGTCCGTA gave a binding signal (log2 normalized fluorescence) of 0.0672.

Regarding TGATAGCAAGTA, the binding signal (log2 normalized fluorescence) was -0.425.

As for TGAGCGCTTGTA, the binding signal (log2 normalized fluorescence) was -0.403.

Turning to TGAACTAATGTA, the binding signal (log2 normalized fluorescence) was -0.668.

TGAGGAGTCGTA: the binding signal (log2 normalized fluorescence) is -0.861.

On to TGATTGCTAGTA, for which the binding signal (log2 normalized fluorescence) is -0.863.

With TGATACAGTGTA, the binding signal (log2 normalized fluorescence) was -0.422.

Consider TGACGTCGGGTA, for which the binding signal (log2 normalized fluorescence) is -0.452.

Turning to TGAGCAGGAGTA, the binding signal (log2 normalized fluorescence) was -0.201.

For TGAACAGGAGTA, the binding signal (log2 normalized fluorescence) is 0.124.

TGAAAGTCCGTA: the binding signal (log2 normalized fluorescence) was -1.11.

Sequence TGAAATGCCGTA displayed a binding signal (log2 normalized fluorescence) of 0.0999.

In turn, AGACACGTGGTA showed a binding signal (log2 normalized fluorescence) of 3.08.

As for TGAGTCAAAGTA, the binding signal (log2 normalized fluorescence) is -0.894.

For the sequence TGACGATGTGTA, the binding signal (log2 normalized fluorescence) is 0.182.

For the sequence TGACACGCCATA, the binding signal (log2 normalized fluorescence) came to 2.41.

Take TGATTGATCGTA: the binding signal (log2 normalized fluorescence) is -0.808.

As to TGACATGTGGCC, the binding signal (log2 normalized fluorescence) was found to be 2.99.

For TGAAAGACGGTA, the binding signal (log2 normalized fluorescence) was -0.709.

Sequence TGACACGCAGTA had a binding signal (log2 normalized fluorescence) of 1.7.

Regarding TGAAGGCAAGTA, the binding signal (log2 normalized fluorescence) was -0.39.

For the sequence TGATTTCGGGTA, the binding signal (log2 normalized fluorescence) is -1.08.

For the sequence TGAAAGGATGTA, the binding signal (log2 normalized fluorescence) was -0.0682.

For CATGCCCGAAAC, the binding signal (log2 normalized fluorescence) is 2.98.

With TGATATGCGGTA, the binding signal (log2 normalized fluorescence) is -0.293.

With TGAATGGTCGTA, the binding signal (log2 normalized fluorescence) stood at 0.589.

Regarding TGAGTTCCTGTA, the binding signal (log2 normalized fluorescence) is -0.86.

As to TAGCAGCCATGG, the binding signal (log2 normalized fluorescence) amounted to 0.195.

TGACACCCTGTA returned a binding signal (log2 normalized fluorescence) of 0.532.

For TGATCAACGGTA, the binding signal (log2 normalized fluorescence) was -0.193.

As for TGACGTAACGTA, the binding signal (log2 normalized fluorescence) was -0.528.

Turning to TGAGGTCACGTA, the binding signal (log2 normalized fluorescence) was determined as 0.139.

Sequence TGAAAGCGCGTA yielded a binding signal (log2 normalized fluorescence) of 0.0231.

As for TGAAGGGAGGTA, the binding signal (log2 normalized fluorescence) is -0.0934.

Take TGAGACGTGTTA: the binding signal (log2 normalized fluorescence) is 0.962.

As for TGATTACGAGTA, the binding signal (log2 normalized fluorescence) is -0.632.

As to TGATGCGTCGTA, the binding signal (log2 normalized fluorescence) is 0.0277.

As to TGAACGGAAGTA, the binding signal (log2 normalized fluorescence) is -0.592.

Turning to TGGCACCTGGTA, the binding signal (log2 normalized fluorescence) amounted to 1.88.

On to TGATCCGATGTA, for which the binding signal (log2 normalized fluorescence) was -0.358.

For the sequence TCGCACGTGGTA, the binding signal (log2 normalized fluorescence) came to 3.41.

Regarding TGAAGGGAAGTA, the binding signal (log2 normalized fluorescence) is -0.788.

Regarding TGAAGAAGTGTA, the binding signal (log2 normalized fluorescence) was -0.474.

In turn, TGGCACGTCGGA gave a binding signal (log2 normalized fluorescence) of 1.33.

Consider TGATATCGGGTA, for which the binding signal (log2 normalized fluorescence) is -1.02.

Regarding TGACACGTTCCA, the binding signal (log2 normalized fluorescence) came to 2.98.

On to TGACAAGTAGTC, for which the binding signal (log2 normalized fluorescence) is -0.542.

Take TGAATCGGAGTA: the binding signal (log2 normalized fluorescence) was -1.26.

With TGACCCCCAGTA, the binding signal (log2 normalized fluorescence) is -0.262.

TGACAGCGAGTA yielded a binding signal (log2 normalized fluorescence) of 0.352.

With TGAAACCGAGTA, the binding signal (log2 normalized fluorescence) was -0.736.

In the case of TGAACCAGAGTA, the binding signal (log2 normalized fluorescence) was -0.489.

The sequence TGACGCACGGTA registered a binding signal (log2 normalized fluorescence) of 1.

On to TGACCCTGGGTA, for which the binding signal (log2 normalized fluorescence) is -0.611.

The sequence TGACAACGTGTA yielded a binding signal (log2 normalized fluorescence) of 2.9.

With TGATAGAGAGTA, the binding signal (log2 normalized fluorescence) is -1.14.

As for TGAAAAGAGGTA, the binding signal (log2 normalized fluorescence) is -0.907.

CAGCACGTGGTA gave a binding signal (log2 normalized fluorescence) of 3.24.

For the sequence TGAATGACGGTA, the binding signal (log2 normalized fluorescence) was -0.136.

The sequence TGATACGTGGGA registered a binding signal (log2 normalized fluorescence) of 0.492.

As to TGACCGGATGTA, the binding signal (log2 normalized fluorescence) is -0.0482.

Regarding TGAGCAATCGTA, the binding signal (log2 normalized fluorescence) is -0.921.

For TGAGACGAGGTA, the binding signal (log2 normalized fluorescence) was -0.385.

TGACGACGAGTA: the binding signal (log2 normalized fluorescence) was -0.369.

For the sequence TGAGCCGAGGTA, the binding signal (log2 normalized fluorescence) is -0.66.

As to TGAATTTAAGTA, the binding signal (log2 normalized fluorescence) was -0.935.

As to TGAAGTAGAGTA, the binding signal (log2 normalized fluorescence) was -0.982.

With AAGCACGTGGTA, the binding signal (log2 normalized fluorescence) stood at 3.27.

For the sequence TGACTGACAGTA, the binding signal (log2 normalized fluorescence) was -0.187.

GAACCCACTGCT displayed a binding signal (log2 normalized fluorescence) of 0.141.

In the case of TGACTAATCGTA, the binding signal (log2 normalized fluorescence) was -1.05.

For the sequence TGACCTTGAGTA, the binding signal (log2 normalized fluorescence) is -0.169.

Consider TGAAACCCTGTA, for which the binding signal (log2 normalized fluorescence) was -0.312.

Turning to TGACCGTGCGTA, the binding signal (log2 normalized fluorescence) worked out at 1.1.

Take TGAGGGCGCGTA: the binding signal (log2 normalized fluorescence) was -0.0439.

TGACACACGGTC had a binding signal (log2 normalized fluorescence) of 1.84.

In the case of TGATGGATGGTA, the binding signal (log2 normalized fluorescence) was -0.0451.

Sequence TGAGATGTGGTA returned a binding signal (log2 normalized fluorescence) of 0.0154.

For the sequence TGACCAGTAGTA, the binding signal (log2 normalized fluorescence) was -0.733.

In turn, TGACATTCCGTA displayed a binding signal (log2 normalized fluorescence) of 0.322.

On to TGAGTCACCGTA, for which the binding signal (log2 normalized fluorescence) is -0.491.

The sequence TGAGGGGGTGTA displayed a binding signal (log2 normalized fluorescence) of 1.88.

Turning to TGATCCTATGTA, the binding signal (log2 normalized fluorescence) was -0.7.

On to TGATGCTCTGTA, for which the binding signal (log2 normalized fluorescence) was -0.0739.

In the case of TGACTTAGTGTA, the binding signal (log2 normalized fluorescence) was -0.68.

With TGAGTACAGGTA, the binding signal (log2 normalized fluorescence) is -0.707.

Regarding TGACCCTTGGTA, the binding signal (log2 normalized fluorescence) is -0.517.

Consider TGAGATCTGGTA, for which the binding signal (log2 normalized fluorescence) is -0.929.

For TGACATACCGTA, the binding signal (log2 normalized fluorescence) is 0.412.

As to TGATATAAAGTA, the binding signal (log2 normalized fluorescence) is -1.07.

On to TGATCCGTCGTA, for which the binding signal (log2 normalized fluorescence) is -1.06.

Take TGAGAGTGAGTA: the binding signal (log2 normalized fluorescence) is -0.581.

The sequence TGATCGCGAGTA had a binding signal (log2 normalized fluorescence) of 0.281.

TTACACGTGGTC returned a binding signal (log2 normalized fluorescence) of 3.19.

For the sequence TGACTAGTTGTA, the binding signal (log2 normalized fluorescence) was -0.869.

For the sequence TGAGTGCCTGTA, the binding signal (log2 normalized fluorescence) was determined as 0.0743.

As for TGAACTACAGTA, the binding signal (log2 normalized fluorescence) is -0.703.

Turning to TGATTACCCGTA, the binding signal (log2 normalized fluorescence) is -0.535.

Take TGACGAACCGTA: the binding signal (log2 normalized fluorescence) is -0.642.

Regarding TGATACAAAGTA, the binding signal (log2 normalized fluorescence) is -0.7.

On to TGCCACGTAGGA, for which the binding signal (log2 normalized fluorescence) was 1.59.

Regarding TGAGGGTTGGTA, the binding signal (log2 normalized fluorescence) is -0.4.

TCCGACGTGGTA: the binding signal (log2 normalized fluorescence) amounted to 2.2.

TGATACGTGTAA gave a binding signal (log2 normalized fluorescence) of 0.85.

As for TGAGATCATGTA, the binding signal (log2 normalized fluorescence) amounted to 0.189.

For TGATTCGCAGTA, the binding signal (log2 normalized fluorescence) was -1.21.

Sequence TGAATGCCGGTA gave a binding signal (log2 normalized fluorescence) of 0.485.

Consider TGAATACGAGTA, for which the binding signal (log2 normalized fluorescence) is -0.568.

TTACATGTGGTA had a binding signal (log2 normalized fluorescence) of 3.04.

TGAATTCGGGTA: the binding signal (log2 normalized fluorescence) was -1.04.

For TGAATAAAAGTA, the binding signal (log2 normalized fluorescence) is -1.21.

For TGATACCCGGTA, the binding signal (log2 normalized fluorescence) is -0.81.

The sequence AGACCCGTGGTA gave a binding signal (log2 normalized fluorescence) of 2.71.

For TGAACAACGGTA, the binding signal (log2 normalized fluorescence) is -0.207.

Sequence TGACCTGCCGTA yielded a binding signal (log2 normalized fluorescence) of 0.0281.

TAGAGTTTACCG: the binding signal (log2 normalized fluorescence) is -1.5.

Take TGAACCGGCGTA: the binding signal (log2 normalized fluorescence) was -0.299.

With TGATCGTTAGTA, the binding signal (log2 normalized fluorescence) is -0.865.

TGACACGTAGCA gave a binding signal (log2 normalized fluorescence) of 1.7.

With TGATGTTTGGTA, the binding signal (log2 normalized fluorescence) was 0.0123.

The sequence TGACACGGTGTA yielded a binding signal (log2 normalized fluorescence) of 1.64.

The sequence TGACACGTCCTA gave a binding signal (log2 normalized fluorescence) of 1.36.

For the sequence TGAGTGGCCGTA, the binding signal (log2 normalized fluorescence) is 0.691.

Turning to TGAACCCCGGTA, the binding signal (log2 normalized fluorescence) is -0.524.

Regarding TTCGACGTGGTA, the binding signal (log2 normalized fluorescence) was 2.07.

For TGAAGGGACGTA, the binding signal (log2 normalized fluorescence) was -0.603.

Turning to GGACACGTAGTA, the binding signal (log2 normalized fluorescence) came to 2.31.

Turning to TGATAAAGGGTA, the binding signal (log2 normalized fluorescence) was -0.934.

As to TGAATGCACGTA, the binding signal (log2 normalized fluorescence) was determined as 1.15.

As to TGATGGGCAGTA, the binding signal (log2 normalized fluorescence) is -0.108.

As to TGAAAGAGCGTA, the binding signal (log2 normalized fluorescence) is -0.476.

The sequence TGCTTCATGGTT yielded a binding signal (log2 normalized fluorescence) of 0.347.

TGATCGCGTGTA displayed a binding signal (log2 normalized fluorescence) of 2.93.
